Data reported in ChEMBL document CHEMBL4888484, “Replenishing the malaria drug discovery pipeline: Screening and hit evaluation of the MMV Hit Generation Library 1 (HGL1) against asexual blood stage Plasmodium falciparum ,using a nano luciferase reporter read-out” (2022).
Screen size: about 4,800 compounds; about 420 (8.8%) showed an effect of 50% or more. The list shows a part of the results.

Each compound was assayed on Plasmodium falciparum (assay: Confirmatory screen in NF54 nanoGlo assay, in single point, at 2uM, 72h). Conditions: timepoint 72 hour.
Type: functional, Erythrocyte

Row | SMILES | % Inhibition [%]
1 | O=C(CN1C(=O)c2ccccc2C1=O)N1CC(=O)N2CCc3ccccc3[C@@H]2C1 | -1
2 | Cc1cccc(NC(=O)CC(C)(C)CC(=O)O)c1C | 0
3 | CC(C)(C)OC(=O)NC1CCCN(CC2CN(c3ccc(F)cc3)C(=O)O2)C1 (centres undefined) | -8
4 | Cc1ccc(C)n1[C@@H](CC(=O)O)c1ccco1 | -3
5 | CCn1nc(C)c(CN(C)S(=O)(=O)c2ccc(N3CCCC3=O)cc2)c1C | -11
6 | CN1CCCC(CN2C(=O)C3CCCN3C2=O)C1c1cccc(Cl)c1 (centres undefined) | -13
7 | O=C(CC1COCCN1C(=O)C1CCc2ccccc21)c1ccco1 (centres undefined) | -16
8 | c1ccc(Oc2ccc(CNCc3nnc4n3CCCCC4)o2)cc1 | 3
9 | Nc1c(-c2ccccc2)nsc1C(=O)NCc1ccccc1 | 3
10 | Cc1ccc(C(=O)Nc2cc3c4c(c2)C2CCCC2CN4CC2CCCC32)cc1 (centres undefined) | 60
11 | COc1ccc(N(C)S(=O)(=O)c2ccsc2-c2nc(-c3cccnc3)no2)cc1Cl | -5
12 | Cc1nnc(CC(=O)NC2CC(OCc3ccccc3)C2(C)C)o1 (centres undefined) | 0
13 | CCCCCn1c(NCc2cc(Cl)ccc2O)nc2ccccc21 | 37
14 | Brc1ccc2c(c1)CN(Cc1c[nH]cn1)CCO2 | 4
15 | Cc1ccc(N2CCN(C(=O)c3ccco3)[C@@H](C)C2=O)c(C)c1 | -10
16 | COc1ccc(S(=O)(=O)N(CC(=O)N2CCN(Cc3ccc4c(c3)OCO4)CC2)C2CCCCC2)cc1OC | -3
17 | C=CCNC(=O)CCC(=O)NCc1ccco1 | 2
18 | N#Cc1cnc(NC2CC3CCC2C3)cn1 (centres undefined) | -8
19 | O=S1(=O)N=C(n2ccnc2)c2ccccc21 | -7
20 | CCO[C@@H](C)C(=O)Nc1cnns1 | -6
21 | Cc1cccc(Cn2ccn3nc(-c4cccc5ccccc45)cc3c2=O)c1 | -16
22 | Cc1cc(C)n(NC(=O)CCn2nc(C(F)(F)F)c(Br)c2C2CC2)c(=O)c1 | 3
23 | Cc1nc(COC(=O)c2c[nH]nc2-c2c(F)cccc2F)no1 | -5
24 | CCS(=O)(=O)Nc1cc2c(C(C)=O)c(C)oc2cc1C | 4
25 | Cc1cc(CCC(=O)Nc2nnn[nH]2)ccc1Br | -1
26 | Cc1noc(C2CCN(CC(=O)Nc3ccccc3C(=O)NCC(C)C)CC2)n1 | -5

Row | SMILES | % Inhibition [%]
27 | CC(C)(C)NC1=Nc2ccccc2N[C@]12CCCN(C(=O)COc1ccccc1)C2 | -11
28 | Cc1cc(NC(=O)c2c(C)sc3ncnc(N4CCCC4)c23)ccc1F | 8
29 | COc1ccc(OC)c(Nc2cc(C)nc3nnnn23)c1 | -9
30 | CCNC(=O)N1CCCC[C@@]1(C)c1noc(-c2ccc(F)cc2)n1 | 5
31 | Cc1cc(C)c(NC(=O)CN(C)C(=O)NCc2ccco2)c(C)c1 | -8
32 | COC(=O)c1cc(S(=O)(=O)NCCc2csc(C)n2)cc(F)c1F | 3
33 | COc1cccc(-c2noc3nc(C)cc(C(=O)NCCCn4cccn4)c23)c1 | -9
34 | O=C(Nc1nccs1)C1C2CCC(O2)C1C(F)(F)F (centres undefined) | 0
35 | O=C(c1ccc2ccccc2c1)N1CCC[C@H]1c1nc2ccccc2s1 | 1
36 | Oc1cc(OCc2ccccc2F)ccc1-c1[nH]ncc1-c1ccccc1 | 75
37 | CC1=NN(c2ccccc2)C(=O)[C@H]1N1C(=O)c2ccccc2C1=O | -3
38 | COc1ccc(-c2cc3ncc(C(=O)c4cc(Cl)ccc4O)cn3n2)cc1 | 72
39 | Oc1ccc([C@@H](c2cn(-c3nc(-c4ccc(Cl)cc4)cs3)nc2-c2ccccc2)c2c(-c3ccccc3)nn(-c3nc(-c4ccc(Cl)cc4)cs3)c2O)cc1 | 6
40 | O=C(O)c1ccc(-c2n[nH]c(=O)c3c2CCCC3)cc1 | -7
41 | CC1CCN(Cc2ccc(CNCc3c[nH]nc3-c3ccc(F)cc3)cc2)CC1 | 40
42 | Cc1cccc(-c2nc(C[N+]3(Cc4nc(-c5cccc(C)c5)oc4C)CCCC3)c(C)o2)c1 | 41
43 | Cc1c(NC(=O)CCc2ccsc2)nnn1Cc1ccccc1F | -10
44 | O=C(CN1CCCCCC1)Nc1ccc(OCc2ccccc2)cc1 | 0
45 | Cn1nc(C(F)(F)F)cc1B1OC(C)(C)C(C)(C)O1 | 4
46 | CC(=O)OCc1c(C)n(C)c(=O)n(C)c1=O | -6
47 | CCCC(CCC)C(=O)Nc1ccc(O)cc1C(=O)O | 2
48 | CC(C)c1nc(NC(=O)c2c[nH]nc2-c2c(F)cccc2F)n(C)n1 | 0
49 | CCOC(=O)NC(c1ccccc1F)C1CCCCC1=O (centres undefined) | -14
50 | O=C1OC2(c3ccccc31)C(c1ccccc1)CC(=O)N2Cc1ccccc1 (centres undefined) | -9
51 | CCc1ccc(C2=C[C@@H](c3cccc(OC)c3)n3ncc(C(=O)Nc4ccc(C)cc4)c3N2)cc1 | 70
52 | Cn1ccnc1[C@@H](NC(=O)c1ccnn1C(F)F)C(C)(C)CO | -2

Row | SMILES | % Inhibition [%]
53 | O=C(Cc1ccc(Cl)cn1)Nc1ccnn1[C@H]1CCCc2ccccc21 | -10
54 | CCOc1ccc2ccccc2c1C(=O)Nc1cc(C)nn1-c1nc2c(c(=O)[nH]1)CCC2 | 94
55 | CC(C)[C@H](NC(=O)C(F)(F)F)C(=O)NC1CCN(c2ccccc2Cl)C1=O (some centres undefined) | -6
56 | COc1ccc(-c2nc(-c3cccc(-c4nnc(N)o4)c3)sc2C)c(OC)c1 | -3
57 | CC(C)COc1ccc(/C(N)=N/O)cc1 | -9
58 | O=C1c2ccccc2[C@@H](Nc2ccc3c(c2)OCCO3)N1c1ccccn1 | -17
59 | Cc1cccc(C(=O)ON2C(=O)CCC2=O)c1 | -11
60 | CN1C(=O)c2ccc(S(=O)(=O)NCCn3ncnn3)cc2C1=O | -3
61 | CC(C(=O)N1CCCC1c1cccs1)N(C)Cc1ncnn1C (centres undefined) | -1
62 | CCCCOc1ccc(-c2ccc(C)cc2)cc1[C@H]1Nc2ccccc2C(=O)N1c1ccccc1 | 1
63 | c1cc([C@@H]2CN(Cc3noc(C4CC4)n3)CCO2)cs1 | -7
64 | CCc1ccc(CN2CCC[C@H](c3ncc[nH]3)C2)nc1 | 52
65 | O=C(Cn1ccsc1=O)c1cccc(Cl)c1Cl | -8
66 | CC1CC(NS(=O)(=O)CCCC(F)(F)F)CCN1 (centres undefined) | -4
67 | C[C@H]1C[C@@H](O)CCN1C(=O)c1cccc2sc(C(F)(F)F)nc12 | -3
68 | CCc1c(-c2nc(CCN(C)C(=O)c3ccoc3)no2)[nH]c2ccc(C)cc12 | -10
69 | CCN(CC)c1ccc(N2C(=O)c3c(Br)c(Br)c(Br)c(Br)c3C2=O)cc1 | 5
70 | Cc1ccc(CNC(=O)CCCC(=O)NCc2ccccc2)o1 | -12
71 | CCn1nccc1CNc1ccc(F)cc1F | 1
72 | CCn1cc(-c2cc(C(F)(F)F)nc(N3CCCC3)n2)cn1 | 4
73 | CCOc1ccc(C2c3[nH]c4ccccc4c3C[C@H]3C(=O)N(C4CCN(Cc5ccccc5)CC4)CC(=O)N23)cc1OC (some centres undefined) | 80
74 | COc1ccc(-n2nc(C(=O)N3CCOCC3)c(=O)cc2OC)cc1 | -1
75 | O=C(Nc1cccnn1)N[C@@H](c1ccccc1)c1ccc2c(c1)CCCO2 | -9
76 | N#Cc1c2ccc(O)cc2n2ccccc12 | -16
77 | O=C(N[C@@H](CN1CCCC1)c1ccccc1)N1CCC(c2ccn[nH]2)CC1 | 37
78 | COC1(C)CN(c2cnc(C#N)cn2)C1 | -5

Row | SMILES | % Inhibition [%]
79 | COc1ccc2c(c1)CN(C(=O)C1CC3CCC1C3)CC2 (centres undefined) | -3
80 | CCc1c(C)nn(S(=O)(=O)c2ccc3ccccc3c2)c1O | -1
81 | CC(C)(C)OC(=O)NS(=O)(=O)NCc1ccccc1 | 3
82 | [O-]c1c(-c2ccccc2)sc2[n+]1ccc1sc(-c3ccccc3)c([O-])[n+]12 | -14
83 | Cn1c(=O)c2sc(N3CCCC3)nc2n(CC(=O)NC2CCCC2)c1=O | -2
84 | c1ccc(-c2ccc(-n3nnnc3-c3ccccc3)cc2)cc1 | -14
85 | COCCN(CC1CN(Cc2ccsc2)CC1c1cccc(F)c1)C(=O)C(C)C (centres undefined) | 2
86 | O=C1N[C@@H](CC(=O)N2CCN(c3ccccn3)CC2)C(O)=Nc2ccccc21 | -1
87 | O=C(NCc1noc2c1CCCC2)NC[C@H]1CCCC1(F)F | -4
88 | O=C(N[C@@H](Cc1ccccc1)C(=O)NC1CC1)c1cccnc1 | 6
89 | COCCN(CC1CN(Cc2ccc(C)o2)CC1c1cccc(F)c1)C(=O)C(C)C (centres undefined) | -1
90 | CN(C)CCCNCc1ccccc1F | -2
91 | COc1ccc(-c2nn3c(N4CCN(CC=Cc5ccccc5)CC4)cc(C)nc3c2C)cc1OC | 55
92 | c1cnc2nc(-c3ccc4c(c3)OCO4)cn2c1 | -4
93 | O=S1(=O)c2ccccc2N=NN1Cc1ccc(Cl)cc1 | -20
94 | CN(C)c1ccc2cc(NC(=O)CCc3cnn(C)c3)ccc2c1 | -5
95 | O=C(CCc1nc2ccccc2c(=O)[nH]1)Nc1ccc(-n2cnnn2)cc1 | 3
96 | CN1CCN(c2nc(O)c3c(n2)NC(=O)C[C@H]3c2c(F)cccc2Cl)CC1 | -6
97 | Cc1cc(N2C(=O)CCS2(=O)=O)ccc1S(=O)(=O)NC1CCCC1 | 7
98 | Nc1cc(Br)c(C(F)(F)F)cc1NC(=O)C(F)(F)F | -11
99 | Cc1cccc(NC(=O)CCC(=O)OCC(F)(F)C(F)F)c1C | -8
100 | O=c1sc2c(n1Cc1csc(C3CCCCC3)n1)CCCC2 | 1
101 | CCc1nc(C)ncc1C(=O)OCc1nccn1Cc1ccccc1 | 7
102 | Cc1ccc(N2C(=O)CN(CC(C)C)[C@H]3CS(=O)(=O)C[C@H]32)cc1 | 6
103 | Cc1cccc2[nH]cc(CCNC(=O)N3CCC4CCC(C3)N4C)c12 (centres undefined) | 8
104 | CC(C)c1ncsc1C(=O)NC(C)(C)C(=O)NCC1CCCC1 | -13
